Experimental data from the supplement of paper PMC11417369.
± gives the standard deviation of the averaged measurements. The list shows a part of the results.

test system: PfAP2-G AP2 domain (GST-tagged); assay: gcPBM binding intensity (ln(normalized median fluorescence intensity)); higher = stronger DNA binding
In short: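 Alexa488 anti-GST antibody, scanned at 488 nm, detected GST-tagged P. falciparum DNA-binding domains that had been expressed in E. coli and incubated for 1 h on an Agilent 4 × 180k array. The array carried primer-extended double-stranded 36-bp intergenic genomic probes and negative controls. Binding intensity is the highest Masliner-normalised natural-log median intensity across replicate spots of either orientation of each probe.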

Sequence | gcPBM binding intensity (ln)
AAAAAAAAAAAAACTTGTACATGTGATATTATCTAT [XGTACX_site6169] | 10.8 ± 0.38
ATTTAATACATACATTCACACACACTAATTGTATAT [CACACA_site9361] | 10.11 ± 0.028
ACAAAAAAAAACGTGGTGCATTAATAATATTGTATA [GTGCAC_site9469] | 10.13 ± 0.092
TTTAAAATAAATATTACACACAAAATATTAAAAAGC [CACACA_site2129] | 10 ± 0.042
ATATATACATATGGGTGTACATATGCACATATATAT [XGTACX_site8437] | 11.3 ± 0.71
TAGTTAATATGAAAAAGTACACGTTTCAGTGAAAGT [XGTACX_site7402] | 11.7 ± 1
AAAGAATTCATTATTTGTACTTAAATAAATAAATAA [XGTACX_site5932] | 11 ± 0.75
AGAAAGAAAGAATACACACACACATATATATATATC [CACACA_site3744] | 9.895 ± 0.021
AGCACACGCAGACACACACACACACGCACACGCACA [CACACA_site6306] | 10.4 ± 0.18
AAAGGATATGCTTCATATATATATTGTTATATATGT [CACACA_negctrl_site1672] | 9.65 ± 0.15
TCATTATATACAATATGTACATATATGTAATAAACA [XGTACX_site4611] | 11.2 ± 0.73
TATTTATATAGGTATACACACATACAAATATGTAAA [CACACA_site7705] | 10 ± 0.28
AATACCTATAATACAACACACAAGTAATATAAACCT [CACACA_site7661] | 10 ± 0.028
ATAACACAAAAAGGGGGTACAATAAAAAAAAAAAAA [XGTACX_site1652] | 11.5 ± 0.98
ATAAGAAGGAACATAAATATATCATAAAAAAAAAAA [GTGCAC_negctrl_site169] | 9.74 ± 0.28
TAAAATTTTTTATTCACACAAATATAGTTATATATA [CACACA_site5348] | 9.81 ± 0.16
ATTTTTCAAACTTTAGTGCAATGAAAGAAAGAAAAA | 10 ± 0.35
GGAGGTTGTTATAAAAGTACAAAAAGTTGCAATTTT [XGTACX_site7351] | 11 ± 0.59
GTTTTCCTTCCCTTTCCCCCTCAAAAAAAGGGAACA [TGCATGCA_negctrl_site436] | 11.1 ± 0.85
AAGGAATAAAGAAGTTGTACATAATTTGTATCATCC [XGTACX_site3891] | 11.2 ± 0.65
AAATTAATATAAATATGTACATAAATAATAAAATAT [XGTACX_site6131] | 11.3 ± 0.65
TTTCAGCCAAACGATAAACTACGACACTTGAACGAA [CACACA_negctrl_site1747] | 10.1 ± 0.18
TATATTAATAGACACACACACATATTTATATTTATA [CACACA_site6859] | 10.09 ± 0.071

Sequence | gcPBM binding intensity (ln)
TACTGTGATAGCACCACACACGCAAAAGTGAGTATA [CACACA_site1109] | 10.3 ± 0.29
TATATTTAGTAAAAAGGTACCATTCTTATTTATATT [CACACA_negctrl_site1165] | 10.7 ± 0.29
GTAATTATTATTAATAGTACACACTATGGCATTTCA [XGTACX_site5192] | 11.2 ± 0.77
ATATATTTTTTTTCTTCACACACATGAATTATATAT [CACACA_site9053] | 10.2 ± 0.16
ATATATATATATATATGTACATATTATATATGAACG [XGTACX_site1585] | 11.3 ± 0.74
AATAATAGAAAAAGGTGTACTTATAAACATATACAC [XGTACX_site6921] | 11.5 ± 0.83
ATTTTTTTTTTTATGTGTACATATATTTTTTTAATT [XGTACX_site7921] | 11.6 ± 0.97
AAGAAAAAATAAACATGTACATAAATATATATATAT [XGTACX_site304] | 11.3 ± 0.8
ATTTAATTTATAAAAACACACACAGGTAAAAAGGTG [CACACA_site8306] | 10.5 ± 0.21
CAAATACATGTGTAAAGTACATATTAATAAGTCTTT [XGTACX_site6342] | 11 ± 0.67
GAAAATTCTTAAGGCACACACATATATAATATATAC [CACACA_site569] | 10.3 ± 0.3
AATTTAACCCATTTTATAATTATTACCACTATATAT [TGCATGCA_negctrl_site452] | 10.3 ± 0.16
TAAGGCCCTTTTCATCGTACAGTAAAATATAAATAA [XGTACX_site1278] | 11.1 ± 0.81
CATACTGTGATAGCACCACACACGCAAAAGAGGGTA [CACACA_site8285] | 10.2 ± 0.26
AAAAAAAAAAAAAAAAAAAAAAAAAAATATATATAT [CACACA_negctrl_site271] | 11.2 ± 0.72
AAGAAAAAAAAAAAAAAAAAAAAAAAAAAGGAAAAA [GTGCAC_negctrl_site174] | 9.48 ± 0.085
TGCTACTTATAAATAGAACACACATAAGTGTATTTG [CACACA_site9253] | 9.9 ± 0.014
AATAATAAAAAATATACACACATATATAAATAAATA [CACACA_site6164] | 9.7 ± 0.13
ATAAAGCCATACAATACACACATTTGACATGTCCGT [CACACA_site7523] | 10.23 ± 0.021
GAAATTTTTAAATACAGTACACACATGGGTTTAAAT [XGTACX_site6124] | 11.1 ± 0.62
ATACTTCAATCTATTTGTACATATTTTTTAAAACCA [XGTACX_site2328] | 11.1 ± 0.61
TAAGAAAAAAAATAATGTACATATGTATTTGAGAAA [XGTACX_site3569] | 11 ± 0.54
TATATATATATATATTGTACTAATTGTGCAAATGAG [XGTACX_site682] | 11.2 ± 0.81

Sequence | gcPBM binding intensity (ln)
GCGGGTTTATCTTTCGCACACCTTACATTTTAGAAT [CACACA_site2015] | 10.2 ± 0.11
AGTTTTATGTAGTGTTGTACTTTATACAAATATATT [XGTACX_site614] | 11.4 ± 0.6
ATATCACATTCCACGGTACACACTAAAAGAAAAATC [CACACA_site3611] | 11 ± 0.61
TGTTTTTTATATTACTGTACATGTTTTGGAATAATA [XGTACX_site4716] | 11.2 ± 0.84
ATAAATCAAAGGCACACACACAAAAAAAAAAAAAAA [CACACA_site160] | 10.1 ± 0.49
TATTCCTTCTACAATTAAATAATTATAATAAATATA [GTGCAC_negctrl_site26] | 9.93 ± 0.36
GTATCATTAAATTATTGTACATATATATATATATAT [XGTACX_site8809] | 11 ± 0.64
ACATTTAAGTTTAGCTGTACATATTCATCATAATTA [XGTACX_site37] | 11 ± 0.59
TATTTTTGTATATATTTATTCTTATTTTACAGGAAA [TGCATGCA_negctrl_site472] | 9.905 ± 0.049
AACAAAAATAGAAACACACATACATTGGTTTTCTTT [CACACA_site2534] | 9.74 ± 0.19
TATATTTACATTGTAACACACATGAAATATATATAT [CACACA_site61] | 9.93 ± 0.2
TTTTTTATTGTGATACGTATATTATTTTTTGATAAA [CACACA_negctrl_site1] | 10.6 ± 0.32
TGTTGTAAATATGTTTGTACATAAATATATTATTTA [XGTACX_site5442] | 11 ± 0.74
GTTTTATTAAAAATGTGTACTTAATTATGAAAAAAA [XGTACX_site4689] | 11.5 ± 0.97
GTGTATTTTCTGCGCACACACATGCAAAAAGAAATA [CACACA_site1148] | 10.9 ± 0.69
TTAATTAATAGACACACACACATATAAATATAGATT [CACACA_site7143] | 10.05 ± 0.049
AAAAAAAAATAATATTGTACACACATAAATTCTTTG [XGTACX_site4315] | 11.2 ± 0.6
TTTGTTTTTCATAGTGCACACATAACCAAAAATAGT [CACACA_site9030] | 10.9 ± 0.63
AAGAAAAAATATAATAATAATAAAATATATATAATA [TGCATGCA_negctrl_site475] | 9.26 ± 0.46
TAATCTATTTATATGTGTACCTATTTAGAAATGACA [XGTACX_site5709] | 11.3 ± 0.95
AAAGTAAATTTAAGCACACACAACGAACTTTTATAC [CACACA_site7008] | 10.3 ± 0.11
TATTGTTTTGATTGATGTACATGTTTAAAATATATA [XGTACX_site8430] | 11.4 ± 0.88
TTTTTTTTTTTTTTTGCATGTTGAAAATAAAATTAT [TGCATGCA_site86] | 9.81 ± 0.27

Sequence | gcPBM binding intensity (ln)
AAATAGTTGTTAAAGGTGCACAATATGGATATAAGA | 10.5 ± 0.41
TGAAAATATATAACGCGTACAAAAAGGAAATACAAT [XGTACX_site3534] | 11.6 ± 0.86
AAAATTTCAATAAATACACACATATAAATATAGATT [CACACA_site6893] | 9.835 ± 0.078
ATAAATATTTTGTAAGCATGCTTTTAAAAAAAGAAA [TGCATGCA_site572] | 9.68 ± 0.071
ATGTACTATAGGCACACACACTCACATATATATATA [CACACA_site5745] | 11.2 ± 0.73
ATTTATTTTAAATAAGTGCAAAATGGTTATAAATAA | 10.5 ± 0.33
ATAACATTCAAAAAATGTACAAACATATGAATAAAT [XGTACX_site7013] | 10.8 ± 0.43
ATATCATTTTATTTGTGTACTTAAAAAGTTGCAATG [XGTACX_site4099] | 11.6 ± 0.96
AAAACTTTTTTAACAGAAAAATAGGGATACAATATA [CACACA_negctrl_site1708] | 10.24 ± 0.099
GGAAAAAAATAAAATAAGTATTTTACATACATATTG [TGCATGCA_negctrl_site10] | 9.795 ± 0.007
ATATATTTTTATATAGTGCAAGTAATAAAAAGGAAT | 10.4 ± 0.32
TAAATACAAGAACTGACACACATACATACTACATTT [CACACA_site5561] | 10.2 ± 0.13
GGAATAACCAGACACACACACACATATAAATATGTA [CACACA_site7632] | 10.1 ± 0.2
AAAATAATAATAAATGCATGTGTTGTTTACTAAGAA [TGCATGCA_site528] | 9.96 ± 0.028
TTTTTAAAAAGTAACACACACTCTTATATATAATGA [CACACA_site3618] | 10.1 ± 0.33
AAAAAAAACAGACACACACACATAAATATAAATAAA [CACACA_site6214] | 9.955 ± 0.092
TATACATATATATATATATATAGATATATTCACGTG [XGTACX_negctrl_site265] | 9.895 ± 0.021
AATGTAGACACATATGTACACACATATATATGTATA [CACACA_site9014] | 11.3 ± 0.87
AATATTCTATATGATACATGCATGATGGAATAAAAA [TGCATGCA_site980] | 10.1 ± 0.16
TTTTGGTATACGTAATTATATAATATGTTAATCAAT [CACACA_negctrl_site645] | 10.5 ± 0.36
